In all, about 1,800 compounds went through this assay and about 50 (3%) showed activity. The list shows a part of the results.
Tested on: mouse p16Ink4a+/- lung fibroblasts (INKBRITE, bleomycin-injured)
Assay: percentage of GFP+ (p16Ink4a+) fibroblasts among all cells in well; higher = less depletion of p16Ink4a+ cells, active = 20 or less
Conditions: 1 µM; 3 days
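Further: fibroblasts sorted 14 days after bleomycin, GFP+ and GFP− mixed 1:1 in 384-well plates (GFP− as in-well control), imaged after Hoechst and NucView530 staining, reference wells lacked compound.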

SMILES | percentage of GFP+
CC(C)[C@H](N)C(=O)OCCOCn1cnc2c(O)nc(N)nc21 [Valaciclovir] | inactive: 42.1%
CC(C)(C)C(=O)OCOP(=O)(COCCn1cnc2c(N)ncnc21)OCOC(=O)C(C)(C)C [Adefovir Dipivoxil] | active: 19.4%
CCCNC(C)C(=O)Nc1ccccc1C (stereo unspecified) [Prilocaine] | inactive: 38.4%
C[C@]12CC[C@@H]3c4ccc(O)cc4CC[C@H]3[C@@H]1CCC2=O [Estrone] | inactive: 43.9%
O=NO [Sodium Nitrite] | inactive: 52.2%
CC1CCc2c(N3CCC(O)CC3)c(F)cc3c(=O)c(C(=O)O)cn1c23 (stereo unspecified) [Nadifloxacin] | inactive: 30.8%
C[N+]1(C)CCC(=C(c2ccccc2)c2ccccc2)CC1 [Diphemanil Methylsulfate] | inactive: 44.6%
CCCN[C@H]1CCc2nc(N)sc2C1 [Pramipexole] | inactive: 53.7%
CNC(=O)c1ccccc1Nc1nc(Nc2ccc(N3CCOCC3)cc2OC)ncc1Cl | inactive: 33.8%
N#Cc1ccc2[nH]c(O)c(-c3ccc(CN4CCOCC4)cn3)c2c1 | inactive: 40.8%
CCn1cc(C(=O)O)c(=O)c2ccc(C)nc21 [Nalidixic Acid] | inactive: 43.7%
CCC(=O)OCC(=O)[C@@]1(OC(=O)CC)[C@@H](C)C[C@H]2[C@@H]3CCC4=CC(=O)C=C[C@]4(C)[C@@]3(Cl)[C@@H](O)C[C@@]21C [Beclomethasone Dipropionate] | inactive: 24.3%
CN1C(C(=O)Nc2ccccn2)=C(O)c2sc(Cl)cc2S1(=O)=O [Lornoxicam] | inactive: 49.7%
C[C@@H](O[C@H]1OCCN(Cc2n[nH]c(O)n2)[C@H]1c1ccc(F)cc1)c1cc(C(F)(F)F)cc(C(F)(F)F)c1 [Aprepitant] | inactive: 43.6%
C[C@H]1C[C@H]2[C@@H]3CCC4=CC(=O)C=C[C@]4(C)[C@@]3(F)[C@@H](O)C[C@]2(C)[C@@]1(O)C(=O)CO [Betamethasone] | inactive: 33%
Oc1ccc(OCc2ccccc2)cc1 [Monobenzone] | inactive: 52.5%
Cn1c(=O)c(F)c(Nc2ccc(I)cc2F)c2c(=O)n(C[C@@H](O)CO)cnc21 | inactive: 28.4%
Cc1cccc(N(C)C(=S)Oc2ccc3ccccc3c2)c1 [Tolnaftate] | inactive: 45.1%
C[C@H](NCc1ccc(OCc2cccc(F)c2)cc1)C(N)=O [Safinamide] | inactive: 47.4%
CCCCCCNC(=O)n1cc(F)c(=O)[nH]c1=O [Carmofur] | inactive: 35%
O=C1NCCc2[nH]c(-c3ccncc3)cc21 | inactive: 39.1%
C[C@@]1(c2cc(-c3cncnc3)c(F)cc2F)CCSC(N)=N1 | inactive: 36.4%
Nc1nc(N)c2nc(-c3ccccc3)c(N)nc2n1 [Triamterene] | inactive: 46.4%

SMILES | percentage of GFP+
O=C(/C=C/c1ccc(O)cc1)c1ccc(O)cc1O [Isoliquiritigenin] | inactive: 45.5%
Cc1[nH]c(/C=C2\C(=O)Nc3ccccc32)c(C)c1CCC(=O)O [Orantinib] | inactive: 47.6%
COC1CCN(C(=O)c2cc(Cc3nnc(O)c4ccccc34)ccc2F)CC1 | inactive: 41.9%
COc1cc(OC)c(/C=C/S(=O)(=O)Cc2ccc(OC)c(NCC(=O)O)c2)c(OC)c1 [Rigosertib] | inactive: 27.9%
C/C(=N\NC(=S)N1CCC1)c1ccccn1 | active: 6.13%
Cc1oncc1C(=O)Nc1ccc(C(F)(F)F)cc1 [Lefunamide, Leflunomide] | inactive: 39.1%
C[C@@H]1C[C@H]2[C@@H]3CCC4=CC(=O)C=C[C@]4(C)[C@@]3(F)[C@@H](O)C[C@]2(C)[C@@]1(O)C(=O)CO [Dexamethasone] | inactive: 30.5%
CCC(=O)Nc1cccc(Oc2nc(Nc3ccc(N4CCN(C)CC4)cc3OC)ncc2Cl)c1 | inactive: 42.3%
COc1cc(OC2CCN(C)CC2)ccc1Nc1ncc2c(n1)n(C1CCCC1)c(=O)n2C | inactive: 44.1%
CC(=O)O/N=C1/C(=O)N(Cc2cc(Cl)ccc2Cl)c2ccc(Cl)cc21 | inactive: 51.6%
CCCc1cc(O)nc(S)n1 [Propylthiouracil] | inactive: 36.4%
C[C@]12CC[C@@H]3c4ccc(O)cc4C[C@@H](CCCCCCCCCS(=O)CCCC(F)(F)C(F)(F)F)[C@H]3[C@@H]1CC[C@@H]2O (stereo partly specified) [Fulvestrant] | inactive: 36.9%
Cc1ccc(S(=O)(=O)Nc2nc3ccccc3nc2Nc2ccc3nsnc3c2)cc1 | inactive: 43.7%
O=C(O)c1ccc(-n2nc(-c3ccccc3O)nc2-c2ccccc2O)cc1 [Deferasirox] | inactive: 39.3%
O=c1[nH]c(=O)n([C@H]2C[C@H](O)[C@@H](CO)O2)cc1C(F)(F)F [Trifluridine] | inactive: 46.9%
O=C(NC1CCNCC1)c1n[nH]cc1NC(=O)c1c(Cl)cccc1Cl | inactive: 35%
CC(=O)O[C@]1(C(C)=O)CC[C@H]2[C@@H]3C=C(Cl)C4=CC(=O)[C@@H]5C[C@@H]5[C@]4(C)[C@H]3CC[C@@]21C [Cyproterone Acetate] | inactive: 35%
N[C@H]1CN(c2c(F)cc3c(=O)c(C(=O)O)cn([C@@H]4C[C@@H]4F)c3c2Cl)CC12CC2 [Sitafloxacin Hydrate] | inactive: 27.4%
CN(NC(=O)CC(=O)NN(C)C(=S)c1ccccc1)C(=S)c1ccccc1 [Elesclomol] | active: 12%
CNC(=O)c1cccc(-c2ccc3c(N4CCOC[C@@H]4C)nc(N4CCOC[C@@H]4C)nc3n2)c1 | inactive: 34.7%
Sc1ncnc2[nH]cnc12 [Mercaptopurine] | inactive: 44.9%
Cc1nnc(NS(=O)(=O)c2ccc(N)cc2)s1 [Sulfamethizole] | inactive: 44.8%
C[C@H]1O[C@H](O[C@H]2[C@H](O)[C@@H](O)[C@@H](O[C@H]3[C@H](O)[C@@H](O)[C@H](O)O[C@@H]3CO)O[C@@H]2CO)[C@H](O)[C@@H](O)[C@@H]1N[C@H]1C=C(CO)[C@@H](O)[C@H](O)[C@H]1O [Acarbose] | inactive: 44.8%

Source: the supplement of paper PMC11060735
